Experimental data taken from paper PMC7673785.
These are yes or no findings as the source states them, for the method shown. Binding seen in cells or lysates may run through a third protein. Some results given as binding are weak or reduced against the parent protein; the word gives no strength.

Target: Flag-RIPK3 (in MEFs) (not stated (human or mouse cDNA cloned)), Q9QZL0
Experiment: co-IP; MEF-Flag-RIPK3 and MEF (Csnk1g2−/−)-Flag-RIPK3 cells treated with the indicated stimuli for 6 hr; extracts precipitated with anti-Flag antibody, western blot for RIPK1 and CSNK1G2
Conditions: remark: other sources report otherwise

B1: RIPK1 (endogenous, MEF), Q60855 1-656 (enzyme)
chain: MQPDMSLDNIKMASSDLLEKTDLDSGGFGKVSLCYHRSHGFVILKKVYTGPNRAEYNEVLLEEGKMMHRLRHSRVVKLLGIIIEEGNYSLVMEYMEKGNLMHVLKTQIDVPLSLKGRIIVEAIEGMCYLHDKGVIHKDLKPENILVDRDFHIKIADLGVASFKTWSKLTKEKDNKQKEVSSTTKKNNGGTLYYMAPEHLNDINAKPTEKSDVYSFGIVLWAIFAKKEPYENVICTEQFVICIKSGNRPNVEEILEYCPREIISLMERCWQAIPEDRPTFLGIEEEFRPFYLSHFEEYVEEDVASLKKEYPDQSPVLQRMFSLQHDCVPLPPSRSNSEQPGSLHSSQGLQMGPVEESWFSSSPEYPQDENDRSVQAKLQEEASYHAFGIFAEKQTKPQPRQNEAYNREEERKRRVSHDPFAQQRARENIKSAGARGHSDPSTTSRGIAVQQLSWPATQTVWNNGLYNQHGFGTTGTGVWYPPNLSQMYSTYKTPVPETNIPGSTPTMPYFSGPVADDLIKYTIFNSSGIQIGNHNYMDVGLNSQPPNNTCKEESTSRHQAIFDNTTSLTDEHLNPIRENLGRQWKNCARKLGFTESQIDEIDHDYERDGLKEKVYQMLQKWLMREGTKGATVGKLAQALHQCCRIDLLNHLIRASQS
- binding: binds
